Reference: PubChem BioAssay AID1794842 (National Center for Advancing Translational Sciences (NCATS), 2023)
Among all 2,800 compounds or so, fewer than 10 were called active. The call rests on the fitted dose curve; in most records, active means well fitted curve in the direction sought with a large enough effect; inconclusive means small, poorly fitted or top-dose-only effect, or another doubt; inactive means no such curve, though single readings can be large or run the other way. This is one part of the list.

Each molecule was assayed against Metallo-beta-lactamase type 2 (Klebsiella pneumoniae) (UniProt C7C422) (assay: qHTS to identify inhibitors of the New Delhi Metallo-beta-lactamase (NDM): Meropenem screen against the machine-based learning selections.). Conditions: Purified NDM-1, meropenem hydrolysis, absorbance 300 nm; at 38.4 µM (top of the series) unless noted.
Method in brief: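 NDM-1 (2 nM final) in 50 mM HEPES pH 7.0, 1 uM Zn2SO4, 0.01% Tween20 was preincubated with compounds for >30 min. Nitrocefin (16.7 uM final) was read at 485 nm after 15 min, and meropenem (50 uM final) at 300 nm after 30 min.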
Further: % of control where 0% means no effect.

Chain of UniProt C7C422 (C7C422 whole entry, looked up): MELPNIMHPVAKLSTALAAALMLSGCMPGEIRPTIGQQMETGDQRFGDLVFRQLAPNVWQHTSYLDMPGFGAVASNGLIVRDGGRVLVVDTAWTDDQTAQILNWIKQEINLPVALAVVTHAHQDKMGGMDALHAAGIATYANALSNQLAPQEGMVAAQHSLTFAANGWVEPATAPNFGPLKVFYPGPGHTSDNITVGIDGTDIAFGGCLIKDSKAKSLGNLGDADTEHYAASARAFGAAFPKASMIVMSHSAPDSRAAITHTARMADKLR

Activity change, negative = inhibition, inactive:
Fc1ccc(CN2CC[C@H](c3nc4ccccc4o3)C2)cc1F -0.786% [at 57.5 µM], Cc1ccccc1Nc1n[nH]c(C(O)c2ccc3c(c2)CCO3)n1 (stereo not drawn) 3.16% [at 57.5 µM], O[C@@H]1C[C@@H](c2nc(-c3ccccn3)no2)N(Cc2ccccc2)C1 0.702% [at 57.5 µM], COc1ccc(-c2noc([C@@H]3Cc4nc[nH]c4CN3C(=O)Nc3ccc(C)cc3)n2)cc1 7.68% [at 57.5 µM], CCCNc1ncc(CN2CCCC(c3ccc(C(=O)O)cc3)C2)cn1 (stereo not drawn) 1.52%, Cn1cc(CN[C@H]2C[C@H]3C(=O)NC[C@@H](CCC(=O)N4CCCCC4)N3C2)c2ccccc21 4.63%, CC(C)c1ccc(NC2=N[C@H]3[C@@H](O)[C@H](O)C[C@H](C(=O)NC4CCCC4)[C@H]3S2)cc1 -2.7% [at 57.5 µM], COc1cccc(Nc2ncc3c(n2)C(C)(C(=O)Nc2nc(C)cs2)CC3)c1 (stereo not drawn) 5% [at 57.5 µM], O=C1[C@@H]2C[C@@H](CN2Cc2ccccc2)Oc2ccccc2N1Cc1ccccc1 0.797% [at 57.5 µM], O=C(CN1C(=O)C2(CCNCC2)Nc2ccccc21)NC1CCCCCC1 2.46%, Cc1cc(-c2cccc(CCOc3cnc4c(ccn4CC(=O)O)c3)c2)ccn1 13.7% [at 57.5 µM], O=C(CCC[C@H]1NC[C@@H]2C[C@H]1CN(Cc1ccccc1)C2)NCCc1cccnc1 65.2%, COC[C@H]1CCCN1C(=O)C[C@@H]1O[C@H](CNS(C)(=O)=O)[C@@H](O)[C@H]1O 19.9% [at 57.5 µM], CC(C)NC(=O)C[C@@H]1C[C@H]2O[C@H](CNCc3ccccc3Cl)[C@@H](O)[C@H]2O1 1.79% [at 57.5 µM], COc1ccc(NC(=O)N2CC[C@H]3COC(=O)N3c3cc(C)ccc3C2)cc1 0.822% [at 57.5 µM], COc1cccc(S(=O)(=O)N2C[C@@H](C)[C@](O)(C3CCC3)C2)c1 -1.22%, Cc1nn(-c2ccccc2)c(C)c1S(=O)(=O)N[C@@H]1[C@@H](N)[C@H]2CCO[C@H]21 -0.639%, Cc1cc(F)ccc1-c1[nH]nc2ncc(-c3ccsc3)nc12 0.0975% [at 57.5 µM], CCN(CC)C(=O)[C@@H]1CCC[C@@H](NS(=O)(=O)c2ccccc2)CN(C)C(=O)C1 0.226% [at 57.5 µM], O=C(O)CCn1ncc2cc(OCc3ccc(-c4cccc(CO)c4)cc3)ccc21 52.6% [at 57.5 µM], C#CCN(C)Cc1nc(C2(O)CCN(C(C)=O)CC2)cs1 0.966% [at 57.5 µM], Cc1cc(C)c(CNC(=O)c2nc(-c3cccc(N4CCOCC4)c3)cc3[nH]ccc23)c(=O)[nH]1 10.8%, CC(C)CNC1(Cc2cc(CN(C)Cc3ccccc3)on2)COC1 -0.0043% [at 57.5 µM], C=CCNC(=O)N[C@H]1C[C@H]2C(=O)Nc3ccc(-c4cccs4)cc3C(=O)N2C1 22.7% [at 57.5 µM], COc1ccc(-c2cc(-c3ccccc3O)cn3cncc23)cc1 31.9% [at 57.5 µM], c1cncc(-c2cnc([C@@H]3COCCN3Cc3ncc[nH]3)[nH]2)c1 82.9% [at 57.5 µM], O=c1c2nc(-c3cccc(O)c3)ccc2ncn1-c1ccccc1 13.7% [at 57.5 µM], O=C(NCCc1nc(-c2cccnc2)n[nH]1)C1CNCCO1 (stereo not drawn) 30.8%, OC1CCC(NCc2ccc(-c3cnc4c(OCc5ccccc5)nccn34)cc2)CC1 (stereo not drawn) 0.312% [at 57.5 µM], CCOC(=O)N1CCN(C(C(=O)O)c2ccc(OC)nc2OC)CC1 (stereo not drawn) 29%, Cc1ccc2cccc(OCCNC(=O)C3NCCc4[nH]cnc43)c2n1 (stereo not drawn) 16.8%, N[C@@H]1CC[C@H](C(=O)Nc2ccc(CC(=O)N3CCCC3)cc2)C1 1.21%, c1cncc(CNc2cc(-c3cnc4ccccc4n3)c3cc[nH]c3n2)c1 -0.853%, COc1ccccc1-c1[nH]nc2ncc(C(=O)Nc3ccc4[nH]ccc4c3)nc12 8.38% [at 57.5 µM], Cc1ccccc1-c1cnc2[nH]cc(CC(=O)Nc3ccccn3)c2c1 4.66% [at 57.5 µM], COC[C@]1(O)CCN(S(=O)(=O)c2cccc(C(=O)O)c2)CC1(C)C 0.743%, COc1ccccc1N1CCN(C(=O)C[C@@H]2O[C@H](CNS(=O)(=O)c3ccc(Cl)cc3)[C@@H](O)[C@H]2O)CC1 -1.72%, Cn1ccnc1CN1C[C@@H]2C[C@H]1C(=O)N(CC1CC1)c1ccccc1O2 4.52% [at 57.5 µM], Cc1nnc(-c2cc(N3CCN(c4ccccn4)CC3)ccn2)n1-c1ccccc1 9.72% [at 57.5 µM], COCCN1C(=O)[C@@H]2C[C@@H](CN2C)Oc2ccccc21 8.82% [at 76.7 µM], CC(C)Cc1ccc(S(=O)(=O)N2CCCC(Cn3cnc4cccnc43)C2)cc1 (stereo not drawn) -0.671%, CC(CO)NS(=O)(=O)c1cccc(C(=O)NCCc2ncnn2C)c1 (stereo not drawn) -0.683%, CCn1c(CO)nnc1C1CC(NC(=O)Cc2ccc(-n3cnnn3)cc2)C1 (stereo not drawn) -0.0467%, N#Cc1cccc(NC(=O)N[C@H]2CO[C@H]3[C@@H]2OC[C@@H]3Nc2nccc(C3CCCC3)n2)c1 -3.52% [at 57.5 µM], Cc1noc([C@@H](C)NC(=O)C2CCCC2)c1C(=O)O 0.72% [at 76.7 µM], O=C(Nc1ccccc1)O[C@@H]1CO[C@H]2[C@@H]1OC[C@@H]2n1nnnc1Sc1ccccc1 1.8% [at 57.5 µM], OCCC1CN(CCOc2ccc(F)cc2)CCN1CC1CCCCC1 (stereo not drawn) -0.363%, NC(=O)c1cccnc1N1CCC2(CC1)CC(C(=O)O)N(C(=O)C1CC1)C2 (stereo not drawn) 10.6%
